Test results taken from the supplement of paper PMC10126150.
Sequences with one replicate were seen in a single cluster, so their values are uncertain.

Tested on: ATP
Test: switch fluorescence ratio, 500 uM ATP over buffer (Cy3 cluster intensity, sum of 5 cycles each) (fold (ratio)); higher = stronger signal-on switching upon ATP binding; sequences stand for … in TCGTCGGCAGCGTCAGATGTGTATAAGAGACAGTTTTTTTTTTTTTTTTTTTTTTTTT…TC
Conditions: aptamer strand: ATP DNA aptamer (quencher-CACCTGGGGGAGTATTGCGGAGGAAGG + anchor), 100 nM annealed; ATP concentration: 500 uM; one replicate
Summary of the method: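 Imaging in selection buffer was followed by imaging after 15 min with 500 uM ATP at 22 °C, for Cy3-labelled switching-strand clusters annealed to 100 nM quencher-labelled ATP aptamer on a modified Illumina MiSeq flow-cell. Five of these buffer/ATP cycles ran, separated by NaOH stripping and re-annealing. The fluorescence ratio per cluster is summed target-cycle over summed buffer-cycle Cy3 intensity, averaged per switch-domain sequence; clusters outside 100-1000 RFU were removed.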
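Also: ATP exposure 15 min at 22 °C before imaging.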

| Sequence | switch fluorescence ratio |
| --- | --- |
| AATCCAACGG | 1.18 |
| ATGCAAGTTG | 1 |
| AGCTGAATG | 1.01 |
| GGGGCAGTTC | 1.05 |
| TAACCGGATA | 1.05 |
| CAGATCACTT | 1 |
| TGCGTTACGA | 1.04 |
| GAGATCAACC | 0.981 |
| GTAGGCAGAT | 0.982 |
| ACAGTAGGAG | 1.01 |
| TTTACGATAT | 1.17 |
| AAAAACAACC | 1.17 |
| ACGCGGGGCA | 1.03 |
| TTTCGCATGT | 1.15 |
| TGCAGGATCA | 1.02 |
| GAACGTATCC | 1.11 |
| ACTAAAGCAG | 1.05 |
| GGCAGCTCCG | 1.03 |
| CTCTAATGGG | 0.96 |
| GGGATATAAG | 0.994 |
| GATGAACTAC | 1.15 |
| TTATATCTCG | 1.01 |
| GTAGAAGAAC | 1.02 |
| ATGGCTGCAA | 1.56 |
| CAATGCAATA | 3.54 |
| ATCTCGTTTT | 0.987 |

| Sequence | switch fluorescence ratio |
| --- | --- |
| ATCATGCGTC | 1.07 |
| TGGCATTACC | 1.14 |
| GGGTTGATG | 0.974 |
| TCAAACGGAC | 1.36 |
| GAATACTTG | 1.01 |
| GGTTTTACGG | 0.989 |
| AGTATATACT | 0.987 |
| TGTATTTCCG | 1.01 |
| TAAGCCATAG | 1.13 |
| ACCACATAAT | 1.08 |
| GCGGTAAATT | 1.05 |
| GTAAACATGG | 0.965 |
| GAGAGGCAGT | 1.01 |
| ATTGTTAAC | 0.996 |
| AATTCTCGGA | 1.02 |
| ATCTCCCGCT | 1.39 |
| ATTCTACGAC | 1.1 |
| CTTTAGAACC | 1 |
| TGTGGTTAG | 1.02 |
| GTGTCGTTGA | 1.01 |
| CATAGTGCGG | 1 |
| AGGACGTAAG | 0.96 |
| CCAGCCTCTA | 1 |
| GTAATAAGTC | 1.06 |
| GACGGTAGCC | 1.09 |
| GGTTCCGGAC | 1.06 |

| Sequence | switch fluorescence ratio |
| --- | --- |
| TCTGGGCAAT | 5.08 |
| TTATCACGAG | 0.98 |
| GCCTCAACTT | 1.16 |
| TACCATAATA | 1.37 |
| ATGCGTAGGC | 0.982 |
| ACCTTGTTCT | 1.01 |
| TATACTTGGG | 0.977 |
| CACTGATTCA | 1.01 |
| GGTGAGAGCT | 1.07 |
| CCGATGAACT | 1.49 |
| CTACTCGCTC | 1.17 |
| GACATCCCGG | 0.947 |
| ACTAATATCA | 1.05 |
| ATTAATAAGT | 0.957 |
| TACGAATGAT | 1 |
| ACATCGCTTA | 1.12 |
| TCAGGCTGTA | 1.09 |
| TAGTTTTCTA | 1 |
| ACCCTAGGGA | 1.02 |
| ATGATTATTC | 0.961 |
| ACCTTGTCAT | 1 |
| TTGGGTCGTC | 0.989 |
| AGCTTTTTGG | 0.975 |
| GCTGTGCAGG | 1.04 |
| AAAGTTAATT | 1 |
| CCGCGTTGAA | 1.38 |

| Sequence | switch fluorescence ratio |
| --- | --- |
| CGATTTCGAA | 0.919 |
| TCAGGTGGTG | 1.04 |
| CGGCTCGCAC | 1.66 |
| GATTTGGGTG | 1.01 |
| AGCGAGGCGT | 1.01 |
| TTACTTATA | 1.04 |
| CCGTAAAGAT | 1.15 |
| TCTTTCATAC | 2.55 |
| TTTAAATTT | 0.968 |
| TGAAGCT | 0.965 |
| ATAGTTGAAG | 0.997 |
| TGCAGGGTAA | 1.1 |
| TCGGTCCGGT | 0.955 |
| TACTAAGTTT | 1.07 |
| GCCATTCGCT | 0.957 |
| AAATCGAGTA | 0.975 |
| TTGGTATCG | 1.04 |
| GCCAAAGGCG | 0.99 |
| GATGTATGAC | 1.04 |
| TCTGTGGCGT | 0.97 |
| TAGAAGAGGG | 0.98 |
| TTAGGAACCA | 1.1 |
| TGGCAGA | 0.978 |
| AGGATGGGGC | 1.14 |
| CCGTGAGATG | 1.02 |
| TCCTTTCTGG | 0.993 |

| Sequence | switch fluorescence ratio |
| --- | --- |
| TGAATGTGGG | 0.951 |
| ATGTTGGCTG | 1.01 |
| CCAGTTGGAA | 1.05 |
| CGCGCAGAGT | 0.998 |
| GGGTCAGAAG | 0.961 |
| ATCAGACTGC | 0.946 |
| AAAGGGGCAG | 0.953 |
| TTCTCGGGA | 0.997 |
| ATCCTTGAGC | 1.01 |
| GAGGATCAAA | 0.965 |
| TCTTCGCTAG | 1.75 |
| GTCAATATAA | 0.951 |
| GAGTTTCTTC | 1.01 |
| GAGGGCATGG | 1.03 |
| GATTCAGAGC | 1.03 |
| GCGTTCCGA | 1.22 |
| CTCGGGTCA | 0.987 |
| CGGCACGAGG | 1 |
| AAGTATCAAG | 0.952 |
| GTTAATATAC | 1.12 |
| CTGCGGGGGC | 1.06 |
| ATAACGAGGG | 0.974 |
| CTGAGGGAGT | 0.979 |
| CTCCACATAG | 3.56 |
| GCGGCAATGT | 1.16 |
| GATCGGTTGG | 1.03 |

| Sequence | switch fluorescence ratio |
| --- | --- |
| CATGGAGTTT | 1.02 |
| ATGTGTCTGA | 1 |
| CCGTCTTATG | 0.948 |
| AGGGATGGAG | 1.02 |
| ATTCCTACCT | 1.36 |
| ATTTATTCTC | 1.03 |
| CCAAAATCTT | 1.01 |
| ATTACATAGA | 1.04 |
| GGTGCTTCAC | 0.984 |
| AGGTCCCTTG | 0.993 |
| GGTGACTCGA | 1.02 |
| GGTATAGTAC | 1.05 |
| TTTCAACGTG | 1.01 |
| TAGGTCCAGT | 0.983 |
| AGGTAGGGAT | 1.15 |
| GCCATCTAGT | 0.976 |
| GACGGATCGC | 1.05 |
| AGAAACGCAG | 1.02 |
| TTTGCGCAAC | 1.94 |
| GGAAAGCACG | 1.07 |
| CGGTGCATCT | 1.03 |
| AAGAGTTACG | 0.925 |
| TCGCGCGGGA | 1.04 |
| ATGTACTAGA | 1.04 |
| CGGTTCGGTT | 0.998 |
| ACTTAGCCGG | 1.01 |

| Sequence | switch fluorescence ratio |
| --- | --- |
| ACGCGCCAGC | 0.98 |
| ACCCCAAAGT | 1.02 |
| GCCCGTTCAA | 1.05 |
| GTGTGTGCCC | 0.966 |
| GATCAAGATC | 1 |
| GGTCAGTCGT | 1.05 |
| ATATTTACGT | 1.38 |
| TTGTTATTG | 1.02 |
| CCCCGGGCCC | 1.22 |
| GCCAATAGGG | 0.943 |
| CATTATGACT | 0.984 |
| CTTCAAGAT | 1.19 |
| CTTATAAGGT | 0.992 |
| CGTCAATGAG | 1.04 |
| CCCCGAAGTG | 2.24 |
| TGACGACTGG | 1.06 |
| GTCACAAGTG | 1 |
| ACTAGAATCG | 0.985 |
| CCCTTTGCGA | 2.24 |
| TCCTCTTTTA | 0.963 |
| GACGTTACC | 1.78 |
| TCCCGTTCCC | 1.04 |
| TCAACATACG | 1.41 |
| GCTCTGCAAG | 2.1 |
| GTTAGAGACG | 1.07 |
| GGATATACAA | 1 |

| Sequence | switch fluorescence ratio |
| --- | --- |
| ATAGGTGGCT | 0.989 |
| GAGACAGTGT | 1.02 |
| GAGGTAGCAT | 1.06 |
| CGGGACCGAG | 1.01 |
| TCTGTTGCGG | 0.996 |
| ACGACCTTGG | 1.01 |
| GTATTCGCCG | 0.957 |
| TTAGTGCGCT | 0.981 |
| GTATTCACTT | 1.02 |
| TGGCGCCAGG | 0.981 |
| GGAAGCGATG | 1.03 |
| CTCAACTGGG | 1.18 |
| AATGGCATC | 1.05 |
| CCTTGGACCT | 1.24 |
| TATGCGATCA | 1.04 |
| CAGGGGTCAA | 1.21 |
| CTGCAGGCTG | 1.01 |
| TGTTCCTGAG | 1.05 |
| GGCTGGCTAG | 0.968 |
